Data taken from the supplement of paper PMC12645437, “Orthogonal IMiD-Degron Pairs Induce Selective Protein Degradation in Cells” (ACS Chemical Biology, 2025).
This is one part of the list.

B1: Q9UKT9 (peptide)
chain: FECSVCGHGFTQKGNLLRHIKL
B2: Q9UKT9 (peptide)
chain: FWCEVCGAQFTQKGNLLRHIKL
B3: Q9UKT9 (peptide)
chain: LGCPICGFQCTQKGNLLRHIKL
B4: Q9UKT9 (peptide)
chain: FNCSVCGHDFTQKGNLLRHIKL
B5: Q9UKT9 (peptide)
chain: FLCEICGRHFTQKGNLLRHIKL
B6: Q9UKT9 (peptide)
chain: FSCEICGHRFTQKGNLLRHIKL
B7: Q9UKT9 (peptide)
chain: FACPQCGAFFTQKGNLLRHIKL
B8: Q9UKT9 (peptide)
chain: FGCPICGHTFTQKGNLLRHIKL
B9: Q9UKT9 (peptide)
chain: FQCNVCGAQFTQKGNLLRHIKL
B10: Q9UKT9 (peptide)
chain: FLCEICGRPFTQKGNLLRHIKL
B11: Q9UKT9 (peptide)
chain: FVCPICGRSFTQKGNLLRHIKL
B12: Q9UKT9 (peptide)
chain: FQCNICGARFTQKGNLLRHIKL
B13: Q9UKT9 (peptide)
chain: FDCDICGACFTQKGNLLRHIKL
B14: Q9UKT9 (peptide)
chain: FDCNQCGANFTQKGNLLRHIKL
B15: Q9UKT9 (peptide)
chain: FMCPQCGAGFTQKGNLLRHIKL
B16: Q9UKT9 (peptide)
chain: FQCDVCGAPFTQKGNLLRHIKL
B17: Q9UKT9 (peptide)
chain: FQCPICGRCFTQKGNLLRHIKL
B18: Q9UKT9 (peptide)
chain: FNCNQCGHKFTQKGNLLRHIKL
B19: Q9UKT9 (peptide)
chain: FVCNQCGAQFTQKGNLLRHIKL
B20: Q9UKT9 (peptide)
chain: FWCNICGASFTQKGNLLRHIKL
B21: Q9UKT9 (peptide)
chain: FACDVCGAVFTQKGNLLRHIKL
B22: Q9UKT9 (peptide)
chain: FNCDVCGAPFTQKGNLLRHIKL
B23: Q9UKT9 (peptide)
chain: FDCDVCGAAFTQKGNLLRHIKL
B24: Q9UKT9 (peptide)
chain: FNCDICGACFTQKGNLLRHIKL
B25: Q9UKT9 (peptide)
chain: FICNVCGAIFTQKGNLLRHIKL
B26: Q9UKT9 (peptide)
chain: FFCDVCGAWFTQKGNLLRHIKL
B27: Q9UKT9 (peptide)
chain: FFCNVCGAWFTQKGNLLRHIKL
B28: Q9UKT9 (peptide)
chain: FWCDQCGAHFTQKGNLLRHIKL
B29: Q9UKT9 (peptide)
chain: LYCPICGFMCTQKGNLLRHIKL
B30: Q9UKT9 (peptide)
chain: FWCDVCGAWFTQKGNLLRHIKL
B31: Q9UKT9 (peptide)
chain: LRCEICGFVCTQKGNLLRHIKL
B32: Q9UKT9 (peptide)
chain: FQCEQCGACFTQKGNLLRHIKL
B33: Q9UKT9 (peptide)
chain: FVCEVCGARFTQKGNLLRHIKL
B34: Q9UKT9 (peptide)
chain: FGCSVCGHPFTQKGNLLRHIKL
B35: Q9UKT9 (peptide)
chain: FWCNQCGRPFTQKGNLLRHIKL
B36: Q9UKT9 (peptide)
chain: LFCPICGFCCTQKGNLLRHIKL
B37: Q9UKT9 (peptide)
chain: LGCNQCGFPCTQKGNLLRHIKL
B38: Q9UKT9 (peptide)
chain: FHCEICGRTFTQKGNLLRHIKL
B39: Q9UKT9 (peptide)
chain: LNCEICGFTCTQKGNLLRHIKL
B40: Q9UKT9 (peptide)
chain: FVCDICGARFTQKGNLLRHIKL
B41: Q9UKT9 (peptide)
chain: FACNVCGAAFTQKGNLLRHIKL
B42: Q9UKT9 (peptide)
chain: FCCNQCGHGFTQKGNLLRHIKL
B43: Q9UKT9 (peptide)
chain: FFCEVCGAMFTQKGNLLRHIKL
B44: Q9UKT9 (peptide)
chain: FQCNQCGAPFTQKGNLLRHIKL
B45: Q9UKT9 (peptide)
chain: FECSVCGHSFTQKGNLLRHIKL
B46: Q9UKT9 (peptide)
chain: FECPICGHWFTQKGNLLRHIKL
B47: Q9UKT9 (peptide)
chain: FDCPQCGAYFTQKGNLLRHIKL
B48: Q9UKT9 (peptide)
chain: LRCEICGFQCTQKGNLLRHIKL
B49: Q9UKT9 (peptide)
chain: FGCPQCGAGFTQKGNLLRHIKL
B50: Q9UKT9 (peptide)
chain: FCCPVCGAVFTQKGNLLRHIKL

The sequences below were run against no compound (DMSO) (assay: log2 fold change of degron read counts, EGFP-low vs EGFP+ sorted cells; higher = lower degron-EGFP level without compound (poor expression or instability)). Conditions: compound: DMSO control; 18 h.
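Further: jurkat cells carrying a lentiviral library of mutant zinc finger degrons fused to EGFP plus mCherry, mCherry+ cells FACS sorted, degron abundance counted by next-generation sequencing.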

| Sequence | log2 fold change of degron read counts |
| --- | --- |
| B1 | -1.84 |
| B2 | -0.632 |
| B3 | 0.398 |
| B4 | -1.07 |
| B5 | 0.078 |
| B6 | 0.0965 |
| B7 | 0.249 |
| B8 | -0.437 |
| B9 | -1.15 |
| B10 | -0.953 |
| B11 | -0.652 |
| B12 | 0.00338 |
| B13 | -1.03 |
| B14 | -0.152 |
| B15 | -0.433 |
| B16 | -1.3 |
| B17 | 0.141 |
| B18 | 0.376 |
| B19 | -1.51 |
| B20 | 0.542 |
| B21 | -1.53 |
| B22 | -0.764 |
| B23 | -0.799 |
| B24 | -0.666 |
| B25 | -0.273 |

| Sequence | log2 fold change of degron read counts |
| --- | --- |
| B26 | 0.622 |
| B27 | 0.934 |
| B28 | -0.288 |
| B29 | 0.837 |
| B30 | 1.12 |
| B31 | -0.000159 |
| B32 | -1.6 |
| B33 | -2.24 |
| B34 | 0.652 |
| B35 | 1.26 |
| B36 | 2.33 |
| B37 | 1.21 |
| B38 | -1.47 |
| B39 | -1.2 |
| B40 | -1.98 |
| B41 | -0.579 |
| B42 | 0.0209 |
| B43 | -0.513 |
| B44 | -1.21 |
| B45 | -1.61 |
| B46 | -0.518 |
| B47 | -0.321 |
| B48 | -0.406 |
| B49 | -1.28 |
| B50 | -0.161 |
